This is an account of results in publication PMC12136788.

B1: ENSG00000101945:stop:overlap|stop_codon|ENSG00000101945|stop_codon|NA|stop_codon (ssRNA)
RNA: GGGAGUUCUACAGUCCGACGAUCAGAAGCGGGUCCGUAUUGAAUGCAAGUGUGGGACUGAGUCCUGCCGCAAAUACCUCUUCUAGCCCUUAGAAGUCUGAGGCCAGACUGACUGAGGGGGCCUGAAGCUACAUGCACCUCCCCCAACAGAGGAUUGAGCAUCA
B2: ENSG00000070961:be:win_501|CDS|ENSG00000070961|bound_else_gene|NA|bound_elsewhere_windowed (ssRNA)
RNA: GGGAGUUCUACAGUCCGACGAUCGUUAGUAACAGCUUUCAAUGACUGGAGUAAGGAAAAACAGUUUAGAGGUUUGCAGAGCCGAAUUGAACAAGAACAGAAGUUCACUGUCAUCAGGGGUGGUCAGGUCAUUCAGAUACCUGUCAACAGAGGAUUGAGCAUCA
B3: chr20:56404979:56405080:+|3pUTR|ENSG00000101138|unk|FALSE|unique (ssRNA)
RNA: GGGAGUUCUACAGUCCGACGAUCCCGCGCCCAGCCUUCCUGAAGCUUUUUAGAACAUGACAGUACUUCUCUGGAUUCAGCACUAGCAGAGUCAGAGAACUCUGAACUCCCCUUGUACAAACAUAAACUUUGCUUUAUAUUUAUCAACAGAGGAUUGAGCAUCA
B4: chr11:83166318:83166419:+|CDS|ENSG00000165494|unk|FALSE|unique (ssRNA)
RNA: GGGAGUUCUACAGUCCGACGAUCGGGACAAAACCAGGGAGAUCGAGUACUAGAAAGCGAUCAAGAUCUCGAUCACCCAAGUCUAGGUCACCAAUUAUACAUUCCCCAAAGAGAAGAGAUAGGCGGUCACCCAAACGAAGGCAACAACAGAGGAUUGAGCAUCA
B5: chr14:71723713:71723820:+|CDS|ENSG00000197555|unk|total|mutant (ssRNA)
RNA: GGGAGUUCUACAGUCCGACGAUCGCUGCCCCCUCACAGCUCGCACCAUCCUUCUCCUCCUCUUCCUCCUCCUCCUCUGGUCCCCGGAGUUUUUACCCUCGCCAGGGCGCUACCCGCAAGUACCUGAUUGGAUGGAAAAAACCCCAACAGAGGAUUGAGCAUCA
B6: ENSG00000198589:be:win_8451|CDS_3pUTR|ENSG00000198589|bound_else_gene|NA|bound_elsewhere_windowed (ssRNA)
RNA: GGGAGUUCUACAGUCCGACGAUCGCUGUCUUACGACCAGAGGUGCAUCAUUUCUGGCAUGGCUUCAGGAAGCAUUGUGCUAUUUUACAACGACUUUAACCGGUGGCAUCAUGAAUACCAAACCCGCUACUGAUGGUGACAGCUCAACAGAGGAUUGAGCAUCA
B7: chr16:21843385:21843581:-|three_prime_utr|ENSG00000185864|control|control|control (ssRNA)
RNA: GGGAGUUCUACAGUCCGACGAUCGGAAAUAAAAUUGUCCUGAAAGACGUCAUUACUCUACGGAGACAUGUGGAAACAAAAGUUAGAGCUAAAAUCCGUAAGAGGAAGGUGACAACGAAAAUCAACCAUCAUGACAAAAUCAAUCAACAGAGGAUUGAGCAUCA
B8: chr2:73700624:73701305:-|CDS|ENSG00000204872|control|control|control (ssRNA)
RNA: GGGAGUUCUACAGUCCGACGAUCACCGUGGUCAGGGGAUAGCAAAAGCCCUGGUCAGGACUGUCCUCCAGUUUGCCCGGGACUAGGGCUACAGUGAAGUUGUCCUGGACACCAGCAACAUCCAGCUCUCUGCCAUGGGCCUCUCAACAGAGGAUUGAGCAUCA
B9: chr11:35231809:35232301:+|3pUTR|ENSG00000026508|msi1|total|mutant (ssRNA)
RNA: GGGAGUUCUACAGUCCGACGAUCACAACACCAAGAAUUGAUUUUGCCGCCAACAUUCAUUCAAUACUGUUAUAUCAGAGGAGCCGGAGAGAGGAAACAUUUGACUUAUCUGGAAAAGCAAAAUGUACUUAAGAAUAAGAAUAACAACAGAGGAUUGAGCAUCA
B10: chr11:108106880:108106981:+|3pUTR|ENSG00000166266|msi1|total|mutant (ssRNA)
RNA: GGGAGUUCUACAGUCCGACGAUCUCCGUGGUAUGGCAAUAAGACACUUCAGAGGCUAUCUUAACCUCUGAAUACCCAUCUUCCCGUUUAAAGACAGAGACAUCCCAUCUGGAAAAUGUUAACUUGUGUUGCCAUCUCGUUGCCCAACAGAGGAUUGAGCAUCA
B11: chr14:70725707:70725808:-|3pUTR|ENSG00000006432|unk|total|mutant (ssRNA)
RNA: GGGAGUUCUACAGUCCGACGAUCGUCGAAUAUCAGCUAUUUCAUAUGGUUCACCCUAAUGUACCUGCCUCUCUCUUUGGCUUCCGGUCUGAGAAUGACUUGUCUUUGUCAAGGUAUACUAUUGUCCGAAACGCAUUACCAAAUCAACAGAGGAUUGAGCAUCA
B12: chr1:32680599:32680700:+|3pUTR|ENSG00000162521|msi1|total|mutant (ssRNA)
RNA: GGGAGUUCUACAGUCCGACGAUCAAGUGCUUAAAAUGGAAUAAAUUGCUUUUCUACAUAACCCCAUGCUGAUGGGUUUUAUUCCGUAUAAAACAUCCAUCAAACACCAGUCUCUGGCUUCCCGAAGAGUCCUUCAGAUGACAGCAACAGAGGAUUGAGCAUCA
B13: chr19:6380113:6380214:-|3pUTR|ENSG00000125651|msi1|total|mutant (ssRNA)
RNA: GGGAGUUCUACAGUCCGACGAUCACUUCAGGCUCUCAGUGACCCUUCGACAUCCUGCUUGCUCCCUGACUCCCAGGGCCCCGCCGUCCGCAAUUCUGGAAAAGUUAAGCCAUCUCCUCCUCUGGCCCUUCCUUCUGGAAUCUUCAACAGAGGAUUGAGCAUCA
B14: chr1:117368288:117368465:+|CDS|ENSG00000198162|unk|total|mutant (ssRNA)
RNA: GGGAGUUCUACAGUCCGACGAUCUUUUGGGGCAUUCUUUUUCCUUCCAGACUCUUCAAAACACAAACGCUUUGAUUUGGGUUCCGAAGAUGUGUUAAUUCCACAUGCCGAUGCCGGUAAAGGGGCUAAAAACCCCGGAGUCUUCAACAGAGGAUUGAGCAUCA

Some of the results follow.

The experiment deals with MSI1 full-length (mouse, UniProt Q61474 1-362). Description: nsRBNS (natural sequence RNA bind-n-seq); RBNS binding buffer (assumed for nsRBNS): 25 mM Tris pH 7.5, 150 mM KCl, 3 mM MgCl2, 0.01% Triton X-100, 500 ug/ml BSA, 20 U/ml SUPERase-In, 4 C; UNK is unkempt and MSI1 is Musashi-1; names of the RNAs are library labels; protein concentration not given here; high values mean tight binding.
Sequence of UniProt Q61474 (Q61474 whole entry): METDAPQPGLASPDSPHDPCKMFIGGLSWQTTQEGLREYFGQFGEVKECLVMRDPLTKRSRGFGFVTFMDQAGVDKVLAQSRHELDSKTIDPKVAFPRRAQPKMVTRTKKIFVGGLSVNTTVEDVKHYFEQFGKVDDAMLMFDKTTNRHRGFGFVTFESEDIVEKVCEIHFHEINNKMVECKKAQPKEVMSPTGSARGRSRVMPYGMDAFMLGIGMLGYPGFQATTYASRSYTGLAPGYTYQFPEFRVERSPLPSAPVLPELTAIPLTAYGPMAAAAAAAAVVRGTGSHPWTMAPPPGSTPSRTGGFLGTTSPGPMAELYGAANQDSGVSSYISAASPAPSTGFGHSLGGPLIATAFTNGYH
As to B1, the binding signal was 0.457 enrichment R.

On to B2, for which the binding signal stood at 0.9 enrichment R. Next, B3: 1.17 enrichment R; B4: 0.436 enrichment R; B5: 0.786 enrichment R.

B6 showed a binding signal of 0.256 enrichment R. Then B7, with 0.194 enrichment R; and B8, with 0.459 enrichment R; and B9, with 0.457 enrichment R. As for B10, the binding signal worked out at 0.282 enrichment R. Turning to B11, the binding signal worked out at 0.412 enrichment R.

B12 returned a binding signal of 0.302 enrichment R. In the case of B13, the binding signal turned out to be 0.582 enrichment R. Next, B14: 0.34 enrichment R.
